# PubChem BioAssay AID485344 (National Center for Advancing Translational Sciences (NCATS), 2010)
# The campaign covered roughly 340,000 compounds. About 6,900 (2%) were called active. No stated cut-off is given here; in the data, active means inhibition above about 30%; inactive means below that, where a call was filed. The list shows a part of the results, in another mix than the full data. The source gives no active or inactive call for entries shown without one.
# Target: D(2) dopamine receptor (Homo sapiens) (UniProt P14416)
# Assay: HTS Assay for Allosteric Antagonists of the Human D2 Dopamine Receptor: Primary Screen for Antagonists; further: 0% is about no effect
# Conditions: HEK293 TREx D2 cells, calcium flux, dopamine EC80; at 10 µM; stronger effect = higher value
# Method in brief: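 HEK293 T-REx D2 cells, tet-induced, calcium dye no-wash. Cpd pintool add, 180 s kinetic, then EC80 DA, 180 s kinetic. Ca flux read.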
# UniProt P14416, sequence (P14416 whole entry, looked up): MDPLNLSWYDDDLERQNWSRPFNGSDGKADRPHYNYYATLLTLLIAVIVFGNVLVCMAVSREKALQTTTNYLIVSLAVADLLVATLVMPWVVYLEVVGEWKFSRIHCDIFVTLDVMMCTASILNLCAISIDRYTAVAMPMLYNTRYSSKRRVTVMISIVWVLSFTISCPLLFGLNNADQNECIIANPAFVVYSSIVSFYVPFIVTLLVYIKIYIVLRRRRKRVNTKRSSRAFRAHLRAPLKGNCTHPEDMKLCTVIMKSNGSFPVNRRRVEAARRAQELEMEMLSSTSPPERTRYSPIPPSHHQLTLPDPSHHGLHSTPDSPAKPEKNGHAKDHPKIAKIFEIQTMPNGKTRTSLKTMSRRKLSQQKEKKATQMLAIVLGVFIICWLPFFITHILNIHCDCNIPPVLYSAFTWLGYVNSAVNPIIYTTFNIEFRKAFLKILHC
row,SMILES,inhibition
1,COc1ccc(N2CCN(C(=O)CSCc3nc(-c4ccccc4Cl)oc3C)CC2)cc1,8.35%
2,CCc1nc(-c2cc(S(=O)(=O)N3CCN(c4ccc(F)cc4)CC3)ccc2OC)no1,-3.65%
3,COc1ccccc1CNC(=O)c1cccn1-c1nnc(N2CCCC2)s1,4.71%
4,Cc1cccc(NC(=O)Cn2nc(-c3ccc(Cl)cc3)c3ccccc3c2=O)c1,23.9%
5,O=C(CSc1ccc2nc(-c3ccccc3)cn2n1)Nc1ccccc1C(F)(F)F,2.46%
6,Cc1cccc(NC(=O)C(=O)c2cc(C)n(-c3ccccc3)c2C)c1C,-25.7%
7,O=C(Nc1cccc(-c2nc3ncccc3o2)c1)c1ccc(-c2cccc(Cl)c2Cl)o1,20.1%
8,CCOc1ccc(N2CC(C(=O)Nc3ccc(S(=O)(=O)Nc4nccs4)cc3)CC2=O)cc1 (stereo not drawn),active: 31.9%
9,CCOc1cccc2cc(-c3nc4sc(C(=O)Nc5ccc(C)cc5)c(C)c4c(=O)[nH]3)c(=O)oc12,-16.6%
10,COc1ccc(C(=O)NCC(c2cccnc2)N2CCN(c3ccc(F)cc3)CC2)cc1 (stereo not drawn),22%
11,O=C(NCC(c1ccc(Cl)cc1)N1CCCCC1)c1ccc(F)cc1 (stereo not drawn),-21.9%
12,Brc1cccc(OCCCNC2CCCC2)c1,active: 57.6%
13,COc1cccc(-c2cc(C(F)(F)F)nc(-n3nc(C)c(Br)c3C)n2)c1,0.195%
14,Nc1nc(N)c(S(=O)(=O)c2ccccc2)c(Nc2ccc(Br)cc2)n1,11.2%
15,O=C(N/N=C/c1cccc(Br)c1)C1CC(=O)N(c2ccccc2)C1 (stereo not drawn),active: 35.4%
16,COc1ccc(-c2nc3sc(CCNC(=O)C(=O)Nc4cc(C)cc(C)c4)c(C)n3n2)cc1,0.979%
17,COc1ccc(N2CCN(C(=O)Cn3ncc4c3-c3cc(C)ccc3OC4)CC2)cc1,-7.27%
18,Cc1ccc(NC(=O)c2cccc(NC(=O)N3CCSc4ncccc43)c2)cc1Cl,-5.8%
19,CCN(C(=O)c1nn(-c2ccc(OC)c(Cl)c2)c(=O)c2c1c1ccccc1n2C)c1cc(OC)ccc1OC,-11.2%
20,CCOc1ccc(NC(=O)CN(C)S(=O)(=O)c2ccc3c(c2)c(=O)n(C)c(=O)n3C)cc1,11.2%
21,Cc1ccc(C(=O)NCC(c2cccs2)S(=O)(=O)c2cccs2)cc1C (stereo not drawn),-9.75%
22,O=C(NCc1ccc2c(c1)CCN2C(=O)c1ccncc1)c1cccc(Cl)c1,-21.7%
23,COc1ccc(NC(=O)c2sc3nc(C)c(C(=O)Nc4ccc(C)cc4C)c(-c4ccc(Cl)cc4)c3c2N)cc1,-11.2%
24,Cc1oc(-c2ccccc2F)nc1CS(=O)(=O)CC(=O)N1CCN(c2cccc(C(F)(F)F)c2)CC1,18.2%

row,SMILES,inhibition
1,O=C(Nc1ccc(S(=O)(=O)N2CCC(c3nc4ccccc4s3)CC2)cc1)c1ccc(F)cc1,-2.95%
2,Cc1ccc(NC(=O)C2Cc3ccccc3N2C(=O)c2ccccc2)cc1Cl (stereo not drawn),-26.6%
3,Cc1cc(C)c(S(=O)(=O)NCCc2cc3c(C)ccc(C)c3[nH]c2=O)c(C)c1,4.97%
4,CCOC(=O)N1CCC(NCCNC(=O)c2ccc(Cl)cc2)CC1,active: 59.1%
5,Cc1ccc(C)c(-n2nnc(-c3nc(-c4ccc(Cl)cc4)no3)c2N)c1,17.7%
6,CCCC(=O)NCCc1nc2ccccc2n1Cc1c(F)cccc1Cl,-3.96%
7,Cc1ccc(N(CC(=O)NCc2ccc(F)cc2)S(=O)(=O)c2cccs2)cc1,active: 45.6%
8,CC(=O)c1ccc(NC(=O)CSc2cn(CC(=O)N3CCCCC3)c3ccccc23)cc1,-7.71%
9,CCc1ccc(NC(=O)C2CCN(c3nnc(-n4c(C)ccc4C)s3)CC2)cc1,11.3%
10,CCOc1ccc(-c2cn(-c3ccc(OC)cc3)c(SCC(=O)Nc3ccccc3Cl)n2)cc1,6.72%
11,COc1ccc(F)cc1S(=O)(=O)NCCc1csc(-c2ccc(Cl)cc2)n1,-3.87%
12,CCC(=O)Nc1sc2c(c1C(=O)Nc1ccc(OC)cc1)CCC(C(C)(C)C)C2 (stereo not drawn),0.925%
13,c1ccc(-c2cn(-c3ccccc3)c3ncnc(N4CCN(c5ccccc5)CC4)c23)cc1,18%
14,COc1ccc(OC)c(NC(=O)CSc2n[nH]c(-c3ccccc3Cl)n2)c1,7.72%
15,Cc1cc(C)cc(Oc2c(C(F)(F)F)oc3c(CN4CCCC(C)C4)c(O)ccc3c2=O)c1 (stereo not drawn),10.8%
16,COc1ccccc1N1CCN(c2ccc3cc(S(=O)(=O)N4CCCCC4)ccc3n2)CC1,-4.13%
17,CCOC(=O)CC(NC(=O)c1cc2cc(Cl)ccc2oc1=O)c1ccc(C)cc1 (stereo not drawn),16.7%
18,CCOc1ccc(-n2nc(CO)c(C(=O)NCc3ccc(Cl)cc3)n2)cc1,16%
19,Cc1ccc(-c2nnc(SCCOc3ccccc3)o2)cc1,-12.3%
20,CC1CCN(C(=O)CSc2c3c(nc4cc(Cl)ccc24)CCCC3)CC1,7.54%
21,Brc1ccc(-c2ccc(CNCCSc3nnnn3-c3ccccc3)o2)cc1,3.72%
22,CCOc1ccc(-c2nc3c(c(SCC(=O)N4CCCCC4)n2)Cc2cc(C)ccc2O3)cc1,-2.34%
23,COc1ccc(CCNC(=O)CN(c2ccc(C)cc2)S(=O)(=O)c2ccc(OC)cc2)cc1,-10.5%
24,COc1ccc(N2CCN(CCCNC(=O)Nc3ccccc3Cl)CC2)cc1,16.7%

row,SMILES,inhibition
1,CCOc1ccc(CN2C(=O)c3ccccc3Sc3ccc(C(=O)N4CCN(C)CC4)cc32)cc1,1.38%
2,Cc1ccc(-c2nc3ccc([N+](=O)[O-])cc3[nH]2)cc1,active: 44.5%
3,CCC(Sc1nc2cc(OC)c(OC)cc2c(=O)n1Cc1ccc(Cl)cc1)C(=O)NCCOC (stereo not drawn),11.8%
4,Cc1cc(NC(=O)c2cccnc2)cc(-c2nc3cc(Cl)ccc3o2)c1O,1.34%
5,CCCN(CCC)CCCNC(=O)C(NS(=O)(=O)c1ccc2c(c1)CCC(=O)N2)c1ccccc1 (stereo not drawn),active: 44.7%
6,CN(C)S(=O)(=O)c1ccc2c(c1)c(=O)c(C(=O)N1CCN(c3cccc(Cl)c3)CC1)cn2C,1.9%
7,O=S1(=O)c2ccccc2N(Cc2ccc(Cl)cc2F)c2ccccc21,7.2%
8,COc1ccc(OC)c(NC(=O)CSC2=Nc3ccccc3C3=NC(CCC(=O)NCc4ccco4)C(=O)N23)c1 (stereo not drawn),-8.83%
9,CCC(=O)Nc1nnc(S(=O)(=O)N(C)Cc2ccc(Cl)cc2)s1,-15.3%
10,CCOC(=O)c1ccc(NC(=O)CN(c2ccc(C)cc2)S(=O)(=O)c2ccc(OC)cc2)cc1,19.5%
11,CCOc1ccccc1NC(=O)CSC1=Nc2ccccc2C2=NC(CC(=O)NC3CCCCC3)C(=O)N12 (stereo not drawn),-0.263%
12,COc1ccc(N2CCN(C(CNS(=O)(=O)c3c(C)cc(C)cc3C)c3ccco3)CC2)cc1 (stereo not drawn),2.27%
13,O=C(Cn1c(=O)n(Cc2ccc(F)cc2)c(=O)c2sc3ccccc3c21)NCc1ccccc1Cl,1.94%
14,N#Cc1c(C(F)(F)F)cc(-c2cccs2)nc1SCC(=O)Nc1ccc(Cl)cc1,-8.08%
15,Cc1ccn2c(Nc3ccc4c(c3)OCO4)c(-c3ccco3)nc2c1,-15.7%
16,Cc1cccc(N2CCN(S(=O)(=O)c3c(C)[nH]c(=O)[nH]c3=O)CC2)c1C,-24.3%
17,O=C(CCc1nc2ccccc2c(=O)[nH]1)Nc1cc(Cl)ccc1N1CCCCC1,active: 42.9%
18,COc1cc(C(=O)Nc2ccc(OCc3cc(=O)n4ccc(C)cc4n3)cc2)cc(OC)c1OC,26%
19,COc1cc(Nc2ncnc3onc(-c4ccc(Cl)cc4)c23)cc(OC)c1,4.29%
20,CCCn1c2ccccc2c2cnn(CC(=O)N(CCCOC(C)C)Cc3ccco3)c(=O)c21,18.1%
21,Cc1ccc(-n2c(=O)c3c(C)c(C)sc3n(CC(=O)c3ccc(Cl)cc3)c2=O)cc1C,-3.21%
22,Cc1cc(NC(=O)CCC(=O)N(Cc2ccccc2)C2(C(=O)NC3CCCCC3)CCCC2)no1,active: 44.5%
23,N#Cc1ccccc1CSc1nnc(-c2ccccc2)o1,6.2%
24,O=C(NCCc1c[nH]c2ccccc12)Nc1ccccc1C(F)(F)F,2.59%

row,SMILES,inhibition
1,O=C(CSc1nnc2scc(-c3ccccc3)n12)c1ccc2c(c1)OCCO2,active: 30.9%
2,COC(=O)c1cc(NC(=O)Cn2ncc3c2-c2ccccc2OC3)cc(C(=O)OC)c1,-7.1%
3,COc1cccc(CN2CCN(C3CCN(c4cccc(C)c4C)CC3)CC2CCO)c1 (stereo not drawn),active: 73%
4,Cc1cccc(CS(=O)(=O)CC2Nc3ccc(C(=O)NCc4ccccc4Cl)cc3NC2=O)c1 (stereo not drawn),6.07%
5,COc1ccc(-c2noc(-c3ccc(NC4CCCCC4)c([N+](=O)[O-])c3)n2)cc1OC,4.52%
6,CCc1cccc(C)c1NC(=O)Nc1csc2c1CCCC2,3.08%
7,Cc1ccc(C)c(NC(=O)CSc2nncn3c2cc2sccc23)c1,-14.2%
8,COc1ccc2sc(N(Cc3cccnc3)C(=O)c3ccco3)nc2c1,-18.4%
9,CCCCC/C=C/C1=CC(=O)C[C@H](c2ccc3c(c2)OCO3)C1,active: 30.8%
10,O=C1CN(C(=O)c2ccccc2)C(c2ccc(F)cc2)c2cc(Br)ccc2N1 (stereo not drawn),9.91%
11,CCCNC(=O)C1CCN(c2cc(C)nc3c(-c4ccc(OC)c(OC)c4)c(C)nn23)CC1,1.66%
12,COc1ccc(CN2C(=O)N(c3ccc(F)cc3)C(=O)C2CC(=O)Nc2ccccc2)cc1 (stereo not drawn),-4.12%
13,CCn1c(=O)cc(OCC(=O)NCc2ccc(F)cc2Cl)c2ccccc21,9.71%
14,CCOCCCNC(=O)c1c(NC(=O)c2cc(=O)c3cc(C)c(C)cc3o2)sc2c1CCC2,17.2%
15,CCOC(=O)c1ccc(N2C(=O)c3[nH]nc(-c4ccc(OC)cc4)c3C2c2ccc(C)cc2)cc1 (stereo not drawn),14.6%
16,Cc1ccc(CCNc2nc3ccccc3c3nc(-c4ccccc4)nn23)cc1,-11.4%
17,Cc1oc(-c2ccc(Cl)cc2)nc1CSc1nnc(C)n2c1cc1sccc12,17.5%
18,Cc1ccc(S(=O)(=O)c2cn(C)c3cc(N4CCCC4)c(F)cc3c2=O)c(C)c1,-11.5%
19,CCOc1cc(C(=O)Nc2c(NC)c3ccccc3oc2=O)cc(OCC)c1OCC,-4%
20,CCc1ccc(NC(=O)c2cnn(-c3c(C)cccc3C)c2C2CCNCC2)cc1,15.3%
21,CC1(C)C(c2ccccc2)=[N+]([O-])C2(CCCCC2=O)N1O (stereo not drawn),active: 33.4%
